Results reported in PMC4336329 (PLoS ONE, 2015).
Screen size: about 310,000 compounds; about 2,200 (0.71%) showed an effect of 50% or more. The effect is printed as a negative number. This is one part of the list.

molecular target: human ether-à-go-go-related gene (hERG) potassium channel (human, UniProt Q12809); test: primary screen, population patch clamp on CHO cells stably expressing hERG
Sequence (Q12809 whole entry, looked up): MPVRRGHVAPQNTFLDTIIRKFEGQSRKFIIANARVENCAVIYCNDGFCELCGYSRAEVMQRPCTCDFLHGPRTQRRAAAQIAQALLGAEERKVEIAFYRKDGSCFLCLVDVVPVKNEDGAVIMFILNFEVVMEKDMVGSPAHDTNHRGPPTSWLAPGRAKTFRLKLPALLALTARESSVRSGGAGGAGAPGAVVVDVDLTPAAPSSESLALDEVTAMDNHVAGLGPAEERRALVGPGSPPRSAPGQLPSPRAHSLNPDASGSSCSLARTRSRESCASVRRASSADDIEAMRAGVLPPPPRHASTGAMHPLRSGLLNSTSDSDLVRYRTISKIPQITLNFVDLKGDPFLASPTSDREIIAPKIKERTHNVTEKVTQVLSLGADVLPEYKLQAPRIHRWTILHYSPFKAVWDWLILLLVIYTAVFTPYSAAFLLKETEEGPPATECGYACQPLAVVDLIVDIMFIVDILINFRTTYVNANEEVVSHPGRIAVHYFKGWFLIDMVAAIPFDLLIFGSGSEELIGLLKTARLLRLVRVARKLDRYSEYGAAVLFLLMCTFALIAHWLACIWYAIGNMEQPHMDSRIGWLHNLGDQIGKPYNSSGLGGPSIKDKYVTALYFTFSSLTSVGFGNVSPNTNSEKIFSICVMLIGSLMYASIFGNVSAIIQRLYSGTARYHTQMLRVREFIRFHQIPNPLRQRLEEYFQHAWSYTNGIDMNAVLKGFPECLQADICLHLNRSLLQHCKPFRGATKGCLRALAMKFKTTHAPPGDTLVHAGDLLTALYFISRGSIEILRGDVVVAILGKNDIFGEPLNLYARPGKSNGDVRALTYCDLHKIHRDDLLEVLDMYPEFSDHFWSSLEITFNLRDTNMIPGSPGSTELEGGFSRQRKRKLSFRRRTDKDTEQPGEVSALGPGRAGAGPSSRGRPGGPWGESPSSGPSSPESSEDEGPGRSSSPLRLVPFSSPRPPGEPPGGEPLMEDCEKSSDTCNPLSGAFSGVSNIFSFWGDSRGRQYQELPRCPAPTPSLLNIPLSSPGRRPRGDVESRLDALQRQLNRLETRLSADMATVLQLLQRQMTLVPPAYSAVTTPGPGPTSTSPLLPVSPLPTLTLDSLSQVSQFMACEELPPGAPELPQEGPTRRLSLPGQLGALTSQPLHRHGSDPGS

SMILES	hERG current change (%, negative = inhibition) at 1uM [%]
CCOc1ccc(S(=O)(=O)N(C)CC(=O)N2CCCC2)cc1	21.7
CCC(CC)NC(=O)c1ccc(NS(=O)(=O)c2ccc3[nH]c(=O)[nH]c3c2)cc1	14.4
Cc1ccc(C#N)c(SCc2ccccc2[N+](=O)[O-])n1	-0.479
CC(=O)N/N=C/c1cc(C(C)C)cc(/C=N/NC(C)=O)c1O	16.5
CCN1CCN(C(=O)c2cc3cc4ccc(OC)cc4nc3s2)CC1	8.74
COc1ccc(NC(C)C(=O)N/N=C/c2ccccc2OCc2ccc(Br)cc2)cc1 (stereo not drawn)	5.73
COc1ccc(C(CNC(=O)COc2ccccc2OC)N2CCCCC2)cc1 (stereo not drawn)	4.66
Cc1cccc(NC(=O)c2cc(-c3c(C)cc(C)cc3O)n[nH]2)c1	16.6
CC1=C(C)CC(C(=O)NNC(=O)c2csc(C)c2C)C(C(=O)O)C1 (stereo not drawn)	12.8
CCOc1ccc(Br)cc1C(=O)N/N=C/c1ccccn1	0.583
O=C(CC1C(=O)NCCN1CC1CCCCC1)NCc1cc(F)ccc1F (stereo not drawn)	10.2
O=C(C1=NN[C@@H]2C(=O)N(c3ccccc3C(F)(F)F)C(=O)[C@H]12)C(c1ccccc1)c1ccccc1	8.32
CCNc1nc(Cl)nc(N(NC(C)=O)C(C)CC)n1 (stereo not drawn)	12.4
COc1ccc(NC(=O)Cc2c(C(=O)O)n(C)c3ccccc23)cc1OC	13.7
Cc1cccc(NC(=O)c2ccc3nc(N4CCOCC4)sc3c2)c1C	-5.59
O=C(NCc1nnc(SCC(=O)N2CCN(c3ccccc3)CC2)o1)c1c(F)cccc1F	14.7
COC(=O)CNC(=O)CNC(=O)c1nn(-c2ccc(OC)c(Cl)c2)c(=O)c2ccccc12	14.6
O=C(/C=C/c1ccc(Cl)c(Cl)c1)N1CCc2ccccc21	-2.84
CC(C)CNC(=S)NC(=O)c1ccc(F)cc1	6.66
COc1ccc(-c2noc(C(C)NC(=O)c3ccco3)n2)cc1OC (stereo not drawn)	11.1
C=CCn1c(C)cc(C(=O)CSc2ccc(NC(C)=O)cc2)c1C	6.47
Cc1cccc(Nc2nc(C)nc3c2oc2ccccc23)c1.Cl	5.38
O=C(Nc1ccccc1)N(Cc1ccccc1)C1=NCCS1	8.04

SMILES	hERG current change (%, negative = inhibition) at 1uM [%]
CCOC(=O)C1CCN(c2cc(=O)n(C3CCCCC3)c(=O)[nH]2)CC1	8.28
O=C(CN(C(=O)CCC(=O)Nc1nccs1)c1cccc(F)c1)NCc1ccc2c(c1)OCO2	12.6
Cc1cc(C)c(S(=O)(=O)Nc2ccc3[nH]c(=O)[nH]c3c2)c(C)c1	9.78
Cc1ccc(NC2SC(=O)N(Cc3cccc(C(=O)O)c3)C2=O)c(C)c1 (stereo not drawn)	11.1
COc1ccc(-c2csc3nc(C)nc(N4CCN(C(C)=O)CC4)c23)cc1OC	3.19
CCOc1nc2cnccc2n(CC(=O)Nc2cccc(C)c2)c1=O	11.6
O=C(CCS(=O)(=O)c1ccccc1Cl)NCCC1=CCCCC1	1.55
Cc1cc(NS(=O)(=O)c2ccc(NC(=O)CCCOc3cccc(C)c3C)cc2)no1	1.65
Cc1nc2nc(SCC(=O)NCc3ccco3)nn2c(C)c1Cc1c(F)cccc1Cl	-6.28
CCCn1cnc2cc(NCc3cccc(OC)c3O)ccc21	4.5
Nn1c(SCC(=O)N2CCOCC2)nnc1-c1ccco1	9.16
O=C(CN1C(=O)c2cccc3cccc1c23)Nc1ccc(S(=O)(=O)Nc2nccs2)cc1	5.66
COc1ccccc1C1=NOC(C)(c2sc(-c3ccccc3)nc2C)C1 (stereo not drawn)	17.2
CCc1ccc(NC(=O)CCC(=O)c2ccc(C)cc2)cc1	18.1
O=C(NNC(=O)c1ccccc1[N+](=O)[O-])c1csc(N2CCOCC2)n1	0.109
Cc1ccc(S(=O)(=O)N2CCCC2)cc1C(=O)NCC(C)(C)N1CCOCC1	17.2
CC1CN(c2ncc(/C=N/NC(=O)c3ccccc3O)s2)CC(C)O1 (stereo not drawn)	13.5
O=C1C=C(O)CC(c2cccs2)C1 (stereo not drawn)	15.4
COc1ccc(CN(Cc2cc3cc(OC)c(OC)cc3[nH]c2=O)C(=O)NC2CCCCC2)cc1	8.68
CCc1nnc(NC(=O)Cc2ccc(Br)cc2)s1	2.38
O=c1[nH]c2ccc(Cl)cc2c(-c2ccccc2)c1CN1CCOCC1	0.381
c1csc(-c2nn[nH]n2)c1	4.96
COC(=O)c1scc(C)c1-n1ccc(C(=O)C(=O)N(C)C)c1	9.29

SMILES	hERG current change (%, negative = inhibition) at 1uM [%]
Cc1ncoc1C(=O)N1CCCC(N2CCN(c3ccccc3F)CC2)C1 (stereo not drawn)	11.3
COc1ccccc1NC(=S)N(Cc1ccco1)Cc1cc2cccc(C)c2[nH]c1=O	5.27
Cc1ccc(C(=O)Nn2cnnc2)cc1S(=O)(=O)N1CCOCC1	3.09
O=C1N=C(N2CCCC2)S/C1=C\c1cn[nH]c1-c1ccccc1	5.58
CNC(=O)CCn1nc(-c2ccc(C)cc2)c2ccccc2c1=O	10.5
CCc1nc(SCC(=O)NNC(=O)C2CCCCC2)c2ccccc2n1	5.44
COc1ccc(CN2CCN(Cc3ccccc3)CC2)c(OC)c1	-43.8
Cc1ccc(-n2nnnc2-c2cccnc2)cc1	10.9
CCCOC(=O)c1ccc(NC(=O)CC(C)(C)C)cc1	6.8
Cc1cc(C)c(NC(=O)/C=C\C(=O)O)c(Cl)c1	0.0953
Cc1onc(-c2ccccc2Cl)c1C(=O)Nc1nn[nH]n1	16.1
O=C(COC(=O)CNC(=O)c1ccco1)Nc1ccc(Cl)cn1	-5.22
O=C(c1cccs1)n1nc(-c2ccccc2)nc1NCc1ccco1	-4.36
Cc1ccc(Oc2nc3c(c(=O)n(C)c(=O)n3C)n2C)cc1C	7.21
CC[C@@]1(c2cccc(C)c2)C(=O)N(C(=O)OC)N1C(=O)OC	19.2
Nc1ccc(S(=O)(=O)Nc2nccc(/C=C/c3ccc(Br)s3)n2)cc1	14.7
COCCn1ccc2c(OCC(=O)Nc3cccc(NC(C)=O)c3)cccc2c1=O	12.3
O=C(COc1cccc2ccccc12)Nc1nc2ccccc2[nH]1	3.88
O=C(COc1ccc2c(c1)OCO2)Nc1ccccc1F	5.62
Cc1nc(-c2ccccc2)sc1C1(C)CC(c2c(Cl)cccc2Cl)=NO1 (stereo not drawn)	10.7
CCOC(=O)C1CCN(Cc2nc3ccccc3c(=O)n2-c2ccc(F)cc2)CC1	-3.3
COc1ccc(NC(=O)C(NC(C)=O)C(=O)NCc2ccccc2OC)cc1 (stereo not drawn)	8.99
CCOC(=O)C1CCCN(Cc2nc(N)nc(Nc3ccccc3OC)n2)C1 (stereo not drawn)	-53.2

SMILES	hERG current change (%, negative = inhibition) at 1uM [%]
COc1cccc(CN2CCCC(C(=O)N3CCCCC3)C2)c1OC.O=C(O)C(=O)O (stereo not drawn)	-8.26
Cc1noc(C)c1C(=O)NCCCN1CCCC1=O	9.97
O=C(CCSCc1cccc(Cl)c1)NCCc1ccc(Cl)cc1	15.9
CC(NC(=O)NC(=O)c1cccc([N+](=O)[O-])c1)C1CC1 (stereo not drawn)	-1.6
COc1cc(C(c2c(C)[nH][nH]c2=O)c2c(C)[nH][nH]c2=O)cc(Br)c1OC	11.3
Br.N=c1c2c(n(Cc3ccc(Br)cc3)c3c1CCC3)CCCC2	-6.82
O=C(/C=C/c1ccco1)Nc1ccc(Oc2ccccc2)cc1	-6.59
O=C(Nc1cc(Cl)ccc1N1CCOCC1)c1ccco1	3.21
CCCn1c2ccc(F)cc2c2nnc(NN)nc21	10.9
Cc1[nH]n(-c2ccccc2)c(=O)c1-c1cccc(Cl)c1	23.3
O=C1CN(c2nnnn2-c2ccccc2)CCN1	6.77
O=C1CC(Nc2ccccc2)C(=O)N1Cc1ccccc1 (stereo not drawn)	4.67
COc1ccc([N+](=O)[O-])cc1NC(=O)C(C)N1CCN(C(=O)c2ccco2)CC1 (stereo not drawn)	8.81
Cc1cccc(N2CCN(c3ccc(NC(=O)/C=C(/C(=O)O)c4ccccc4)cc3)CC2)c1	11.6
O=C(OCc1ccccc1Cl)c1ccc(-n2cnnc2)cc1	7.37
Cn1nc(C(C)(C)C)c([N+](=O)[O-])c1C(=O)NCCO	12.6
CCCn1cc([C@@H]2C[C@H]3CN(Cc4cccc(Cl)c4)C(=O)[C@]34CCCN24)c(C)n1	-42.3
CCCCN(C)C(=O)C1CCN(C/C(C)=C/c2ccccc2)CC1.O=C(O)C(=O)O	-54.3
O=C(c1ccco1)N1CCN(Cc2cc(=O)c(OCc3ccccc3)co2)CC1	8.42
O=C(O)C1CCC(CNS(=O)(=O)c2ccc(Cl)cc2)CC1 (stereo not drawn)	22.3
CSc1nnc(C)c(=O)n1COC(=O)COc1ccc(Cl)cc1	15
